This is one part of the list.
T1: UNK ZnF1-3 (human, UniProt Q9C0B0 31-174)
T1 sequence: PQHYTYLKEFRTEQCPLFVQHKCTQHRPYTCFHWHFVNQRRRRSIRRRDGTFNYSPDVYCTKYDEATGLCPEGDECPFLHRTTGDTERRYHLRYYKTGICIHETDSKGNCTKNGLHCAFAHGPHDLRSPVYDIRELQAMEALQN

B1: chr18:55283160:55283161:-_ENSG00000134440_ENST00000256854|hu_hu|FALSE|FALSE (ssRNA)
RNA: GGGAGUUCUACAGUCCGACGAUCGUUCUUCAACUGUGAUUUAGAAAUAACAUUCCACCUCUCAUUUUCUUUUUGUGAAUCUACGUAAAUGGUAGGAAAUGGUUCUUUCCCUACUGUCAUCAAAGCCUUUAGACCUGUUUUAAACAACAGAGGAUUGAGCAUCA
B2: 3781481_3781706_810_3pUTR_ENSG00000101224_ENST00000439880|human|control|control (ssRNA)
RNA: GGGAGUUCUACAGUCCGACGAUCAAGGCUUCCCUGCGGCUGGCCCACUCUGCCAGAGCAUGGGUGGAGCUGGGAUGUGUGGGCUUCCAUGGCAUCUUGAAGACAAAUCCAUCAUUCUCCUUGUCUUCCCCAGAGCUGCUGGCACAACAGAGGAUUGAGCAUCA
B3: chr12:39763582:39763583:-_ENSG00000139116_ENST00000544797|hu_mus|hu_hu_hu_mus_False|78_78 (ssRNA)
RNA: GGGAGUUCUACAGUCCGACGAUCCUCUAGGAACUGGGCAUUCACUUUGAAUUCAGGAGCAGGAAGCCCGUUUUUAAUCGCUGAGGUCUUUUUCUCAUCAAUACUCUUGAACAGGUGUCUAACAGCACGAGAGAUGAUGCCCUGCAACAGAGGAUUGAGCAUCA
B4: chr8:41367971:41367972:+_ENSG00000147533_ENST00000520817|hu_mus|motif|central (ssRNA)
RNA: GGGAGUUCUACAGUCCGACGAUCGCAACAUACUGUAUUAUUUCUACCAAUUUUUUCUCCUAAGUUAUACUUGUAACAAAACGGGAGUUAGGUGCUUAGGACACUUGCUUCUUCCACACCGGGCAGAGCUGGGGCAGGUGGAGCCAACAGAGGAUUGAGCAUCA
B5: chr17:65740002:65740003:+_ENSG00000130935_ENST00000581375|hu_hu|hu_hu_hu_mus_False|18_48 (ssRNA)
RNA: GGGAGUUCUACAGUCCGACGAUCAACAAAUCUUUCUUCCCUGGACGAACAGGAAGAUUCAUAUUAAAAAAAAUAUAUAUCCAUCAAGGAGAAUUGAGUGGCCACACCUUUACUCCCCACUUCAAUUGAGGUGGAUCUCUGAGUCAACAGAGGAUUGAGCAUCA
B6: chr6:124997908:124997909:+_ENSMUSG00000030330_ENSMUST00000032480|mus_hu|FALSE|FALSE (ssRNA)
RNA: GGGAGUUCUACAGUCCGACGAUCGGAACAAUCAGGGUUGUCACAGCCAAUCAUCUCUCCAUAGGAGACCUGGUGACAAAGGCAAUAGGUGGGUUCGUUGGGAUCCACAGGCAUAUCCAACACAUCAGAGGGGUGGACACUGCCCAACAGAGGAUUGAGCAUCA
B7: 113503590_113505108_642_3pUTR_ENSG00000114573_ENST00000273398|human|control|control (ssRNA)
RNA: GGGAGUUCUACAGUCCGACGAUCACCUUCAAAUUCAAGCUCCAAGACAACAUCAGAGGUAUCAUAAUUCCCAGGUGGAGCAAUGUAAGUUACAGUUCCUCUGUUUCGUGGGGGUAACAUGAUUUUGUGUUUGAUAAGCGAGUUCAACAGAGGAUUGAGCAUCA
B8: chr1:43168039:43168040:+_ENSMUSG00000010290_ENSMUST00000010434|mus_mus|FALSE|FALSE (ssRNA)
RNA: GGGAGUUCUACAGUCCGACGAUCCUGUUGAGUGUCAUUAUUAUUGUGCUCCAUUUUAUGGUUCACAGGCAAAUUGGAAAACAACACUAGGGGUGAAAUCCUCGACGAGGAAUUUGGUGAUUUCCAGAAGGCAUCACUGGUGGACAACAGAGGAUUGAGCAUCA
B9: chr3:148522152:148522153:-_ENSMUSG00000028184_ENSMUST00000106128|mus_hu|motif|central (ssRNA)
RNA: GGGAGUUCUACAGUCCGACGAUCUGGUGAGGUAUCAUGGUAGUUGGCAUAGUUAAUUAUGGCCUCGCCACUCUUAAUUCGGGUCCUCAAGUCAAAUUUCACAAUAUUCCUCGUUCUUUCUUUGUUAAAGAAGACAGCACCAUCCAACAGAGGAUUGAGCAUCA
B10: 35904860_35906044_3262_CDS_ENSMUSG00000031529_ENSMUST00000033929|mouse|control|control (ssRNA)
RNA: GGGAGUUCUACAGUCCGACGAUCAGUUCCCUGAUUCACACAGUGAAAAGUCAAAUAUGGAUUGGUUCCUUGUUGUCCACCUAAAAGUCUUUCAACACCCUUGAUCAACUUGUGGCGGUGUCCAUAUGCAUUGAUGCCUAUUUCCAACAGAGGAUUGAGCAUCA
B11: chr8:54879716:54879717:-_ENSG00000187735_ENST00000521604|hu_hu|FALSE|FALSE (ssRNA)
RNA: GGGAGUUCUACAGUCCGACGAUCCAAUCUCACUCAUGACAGAAAAAGUCAGCAAAUAAGACUUGGGACAAAAUUAUUUUCUAUCAGUCUCCACAUGGAAAGACCACAGCUUUAAUGAAUUAUACAAUCCUUAAGAUUAAUCCUCAACAGAGGAUUGAGCAUCA
B12: chr1:156288723:156288724:-_ENSG00000163468_ENST00000295688|hu_hu|FALSE|FALSE (ssRNA)
RNA: GGGAGUUCUACAGUCCGACGAUCUCCUUUCUUGUAUUCCAGAGAAGAAUCCAGCAGCACAAUGCGAGGGUUCUUGAUAUAGCGCCGCAUACGUGGAUGGGUCACAUCCUUGUUAAUCAUGACUCCACGCAAGACACAGGAGUCCAACAGAGGAUUGAGCAUCA
B13: chr12:111929536:111929537:-_ENSMUSG00000021270_ENSMUST00000094361|mus_hu|motif|central (ssRNA)
RNA: GGGAGUUCUACAGUCCGACGAUCAGCUCAGAACACUUCAAUAACAAGAUUUGGUCUACUUAGGCAUCCGGCUUGACAGCGGAACACUUUAGACCACAAAGUUAACAUCAUGUUACAUACGUCUUACAGUGCACGUUACCCCAACAACAGAGGAUUGAGCAUCA
B14: chrX:50352303:50352304:+_ENSMUSG00000025630_ENSMUST00000026723|mus_mus|motif|central (ssRNA)
RNA: GGGAGUUCUACAGUCCGACGAUCCGGCAUAAUGAUUAGGUAUACAAAACAAAUCUAGGUCAUAACCUGGUUCAUCAUCGCGGAUCACGACGCUGGGACUGCGGGUCGGCAUGACGGGACCGGUCGGCUCGCGGCAAAAAGCGGCAACAGAGGAUUGAGCAUCA
B15: chr4:76733432:76733433:+_ENSG00000138768_ENST00000264904|hu_hu|FALSE|FALSE (ssRNA)
RNA: GGGAGUUCUACAGUCCGACGAUCGCCAAGAGCACCAAGAGAUCAUCUUGUUCUUUUUUAGAAUCUGUAAUUUCCAACUCUAGUUUGUCUUUCUCAGUUUGUAAAAUGGCAAUGGUACUAUUAGAUGAAUCCAGCUGCUCUUUACAACAGAGGAUUGAGCAUCA
B16: chr11:46405157:46405158:+_ENSG00000110492_ENST00000395566|hu_hu|hu_hu_hu_mus_False|18_48 (ssRNA)
RNA: GGGAGUUCUACAGUCCGACGAUCCCCUCCCCACUUUGGGCACUUGGUGUGGGCGUGAGAGGACAGGCGUGAUUGACAGAGCUGACAAGCAGACAGAAGGCACUGGUGGGUUAUAUCUCGGGCCUGGGGGAGAGGAGGGCUCCGCAACAGAGGAUUGAGCAUCA
B17: 46892552_46892672_1950_3pUTR_ENSMUSG00000032905_ENSMUST00000035648|mouse|control|control (ssRNA)
RNA: GGGAGUUCUACAGUCCGACGAUCAAGCCCCGGAGCCUGAGGCAGGUCAGCCUGAGUGACACAGUCAAUCUCAAAAGCAGGACAACAACAGAGUAGCAUUUUACUGUAAUUUUUCCCCCAGAGGUGAGACAAUCUCACUCUGUACAACAGAGGAUUGAGCAUCA
B18: chr9:13223689:13223690:-_ENSG00000107186_ENST00000319217|hu_hu|FALSE|FALSE (ssRNA)
RNA: GGGAGUUCUACAGUCCGACGAUCCUCUUGAACAAAUAUUCCCAGCUCUCCUCUGUUUUCACUUCUUAGUCCCACAACACUAAACCCAAGGCCUCCAGAUGGAGGUUUGAGGAGCUCAAAAACUUCUACAUGGCGACCCUGGGCCAACAGAGGAUUGAGCAUCA
B19: chr5:21408736:21408737:-_ENSMUSG00000042453_ENSMUST00000161356|mus_mus|FALSE|FALSE (ssRNA)
RNA: GGGAGUUCUACAGUCCGACGAUCGUUGACAGCAUUAUAAAUGGUGGCUUCAUGGAACUGGAACGGGGAGCAGCCAAUGCUAUUGGAAGAGGAAGGUAGGCACUGGGUCUGCACGAGCUGCCAGGAAUCGGACCUUGCAUCCUUCAACAGAGGAUUGAGCAUCA
B20: chr17:65740002:65740003:+_ENSG00000130935_ENST00000581375|hu_hu|hu_hu_hu_mus_False|38_38 (ssRNA)
RNA: GGGAGUUCUACAGUCCGACGAUCAACAAAUCUUUCUUCCCUGGACGAACAGGAAGAUUCAUAUUAAAAAAAAUAUAUAUCCAUCAAGUUAGGUGUGUAAUAUCAGACUUUACUCCCAGCACUUUGGGAGGUGGAUCUCUGAGUCAACAGAGGAUUGAGCAUCA
B21: chr4:71639242:71639243:+_ENSG00000018189_ENST00000226328|hu_mus|motif|central (ssRNA)
RNA: GGGAGUUCUACAGUCCGACGAUCUCCAUCCCCUUCACUACCUUUACUACUGUUUCCAUCUUUGAGAUACAUCGAAAAAUCGGUAACUCCAACCUGAGAGUCCAGGUCUUCUCCUUUCAUGCAGAAAUUGGCAUCGAUGACAUUCAACAGAGGAUUGAGCAUCA
B22: chr4:48249827:48249828:-_ENSMUSG00000028343_ENSMUST00000030028|mus_mus|FALSE|FALSE (ssRNA)
RNA: GGGAGUUCUACAGUCCGACGAUCCUCAAAAAUUGGAUGCAACAUCUGGCUGAAACGACACCAGUCAGCAUAAAAAUUUACUAAAGCAACAUCAGCAUUAUUUAAAAUUUCAUCUAUAUUCUCUGAAUCAAGACUUGCUAUUUCCAACAGAGGAUUGAGCAUCA

Target: T1, UNK ZnF1-3
Assay: nsRBNS (natural sequence RNA bind-n-seq); RBNS binding buffer (assumed for nsRBNS): 25 mM Tris pH 7.5, 150 mM KCl, 3 mM MgCl2, 0.01% Triton X-100, 500 ug/ml BSA, 20 U/ml SUPERase-In, 4 C; UNK is unkempt and MSI1 is Musashi-1; names of the RNAs are library labels; protein concentration not given here; high values mean tight binding

| Binder | binding signal [enrichment R] |
| --- | --- |
| B1 | 0.405 |
| B2 | 0.795 |
| B3 | 1.42 |
| B4 | 1.3 |
| B5 | 1.33 |
| B6 | 0.972 |
| B7 | 1.35 |
| B8 | 0.973 |
| B9 | 0.632 |
| B10 | 0.69 |
| B11 | 0.978 |
| B12 | 0.904 |
| B13 | 0.761 |
| B14 | 0.675 |
| B15 | 0.953 |
| B16 | 2.66 |
| B17 | 1.34 |
| B18 | 0.981 |
| B19 | 1.66 |
| B20 | 1.35 |
| B21 | 1 |
| B22 | 1.71 |

— article PMC12136788
